This assay deals with T1, human M2 receptor (Homo sapiens, UniProt P08172).
T1 sequence (P08172 1-466): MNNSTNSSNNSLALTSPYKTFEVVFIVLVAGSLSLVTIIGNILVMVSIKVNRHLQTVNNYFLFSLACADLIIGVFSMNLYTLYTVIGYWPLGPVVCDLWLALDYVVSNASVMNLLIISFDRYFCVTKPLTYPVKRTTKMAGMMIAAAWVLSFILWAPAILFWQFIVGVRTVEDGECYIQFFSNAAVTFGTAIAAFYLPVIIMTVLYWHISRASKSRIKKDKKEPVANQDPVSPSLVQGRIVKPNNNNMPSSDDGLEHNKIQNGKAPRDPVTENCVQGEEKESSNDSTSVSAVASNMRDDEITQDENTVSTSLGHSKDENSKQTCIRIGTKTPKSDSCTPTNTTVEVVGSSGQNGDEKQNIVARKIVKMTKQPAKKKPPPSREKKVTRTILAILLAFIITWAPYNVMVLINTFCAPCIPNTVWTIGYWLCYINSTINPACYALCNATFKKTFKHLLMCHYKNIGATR
As to conditions: read-out: Efficiency, M2-GIRK1/4 activation test; boosting of the acetylcholine effect at an EC20 acetylcholine concentration.

With `O=C(NC12CC3CC(CC(F)(C3)C1)C2)c1cn(-c2ccc(F)cc2F)c2nc(N3CC[C@H](F)C3)ccc2c1=O` [Example 62, 1-(2,4-Difluorophenyl)-7-[(3S,)-3-fluoropyrrolidin-1-yl]-N-(3-fluorotricyclo[3.3.1.1^3,7]dec-1-yl)-4-oxo-1,4-dihydro-1,8-naphthyridine-3-carboxamide], the Emax worked out at 95.5%.

As to `O=C(NC12CCC(F)(CC1)CC2)c1cn(-c2ccc(F)cc2F)c2nc(N3CC[C@H](F)C3)ccc2c1=O` [Example 63, 1-(2,4-Difluorophenyl)-N-(4-fluorobicyclo[2.2.2]oct-1-yl)-7-[(3S)-3-fluoropyrrolidin-1-yl]-4-oxo-1,4-dihydro-1,8-naphthyridine-3-carboxamide], the Emax is 88%.

Regarding `CC[C@H](NC(=O)c1cn(-c2ccc(F)cc2F)c2nc(N3CC[C@H](F)C3)ccc2c1=O)C(F)(F)F` [Example 64, 1-(2,4-Difluorophenyl)-7-[(3S)-3-fluoropyrrolidin-1-yl]-4-oxo-N-[(2S)-1,1,1-trifluorobutan-2-yl]-1,4-dihydro-1,8-naphthyridine-3-carboxamide], the Emax stood at 89.7%.

Consider `CC(C)CC(NC(=O)c1cn(-c2ccc(F)cc2F)c2nc(N3CC[C@H](F)C3)ccc2c1=O)C(F)(F)F` (stereo partly drawn) [Example 65, 1-(2,4-Difluorophenyl)-7-[(3S)-3-fluoropyrrolidin-1-yl]-4-oxo-N-[1,1,1-trifluoro-4-methylpentan-2-yl]-1,4-dihydro-1,8-naphthyridine-3-carboxamide], for which the Emax worked out at 93.7%.

`CCCC(NC(=O)c1cn(-c2ccc(F)cc2F)c2nc(N3CC[C@H](F)C3)ccc2c1=O)C(F)(F)F` (stereo partly drawn) [Example 66, 1-(2,4-Difluorophenyl)-7-[(3S)-3-fluoropyrrolidin-1-yl]-4-oxo-N-[1,1,1-trifluoropentan-2-yl]-1,4-dihydro-1,8-naphthyridine-3-carboxamide]: the Emax was 92%.

Consider `O=C(NCC(F)(F)F)c1cn(-c2ccc(F)cc2F)c2nc(N3CC[C@H](F)C3)ccc2c1=O` [Example 67, 1-(2,4-Difluorophenyl)-7-[(3S)-3-fluoropyrrolidin-1-yl]-4-oxo-N-(2,2,2-trifluoroethyl)-1,4-dihydro-1,8-naphthyridine-3-carboxamide], for which the Emax was found to be 78%.

`O=C(NC1(C(F)(F)F)CC1)c1cn(-c2ccc(F)cc2F)c2nc(N3CC[C@H](F)C3)ccc2c1=O` [Example 68, 1-(2,4-Difluorophenyl)-7-[(3S)-3-fluoropyrrolidin-1-yl]-4-oxo-N-[1-(trifluormethyl)cyclopropyl]-1,4-dihydro-1,8-naphthyridine-3-carboxamide]: the Emax came to 97.5%.

Consider `CC(C)C(NC(=O)c1cn(-c2ccc(F)cc2F)c2nc(N3CC[C@H](F)C3)ccc2c1=O)C(F)(F)F` (stereo partly drawn) [Example 69, 1-(2,4-Difluorophenyl)-7-[(3S)-3-fluoropyrrolidin-1-yl]-4-oxo-N-[1,1,1-trifluoro-3-methylbutan-2-yl]-1,4-dihydro-1,8-naphthyridine-3-carboxamide], for which the Emax is 99.5%.

With `O=C(NC(C(F)(F)F)C(F)(F)F)c1cn(-c2ccc(F)cc2F)c2nc(N3CC[C@H](F)C3)ccc2c1=O` [Example 70, 1-(2,4-Difluorophenyl)-7-[(3S)-3-fluoropyrrolidin-1-yl]-N-(1,1,1,3,3,3-hexafluoropropan-2-yl)-4-oxo-1,4-dihydro-1,8-naphthyridine-3-carboxamide], the Emax turned out to be 97.4%.

In the case of `CCC(NC(=O)c1cn(-c2ccc(F)cc2F)c2nc(N3CC[C@H](F)C3)ccc2c1=O)C(F)(F)F` (stereo partly drawn) [Example 71, 1-(2,4-Difluorophenyl)-7-[(3S)-3-fluoropyrrolidin-1-yl]-4-oxo-N-[1,1,1-trifluorobutan-2-yl]-1,4-dihydro-1,8-naphthyridine-3-carboxamide], the Emax was 95%.

Regarding `O=C(NC12CC3CC(CC(C3)C1)C2)c1cn(-c2ccc(F)cc2F)c2nc(N3CC[C@@H](F)C3)ccc2c1=O` [Example 72, 1-(2,4-Difluorophenyl)-7-[(3R)-3-fluoropyrrolidin-1-yl]-4-oxo-N-(tricyclo[3.3.1.1^3,7]dec-1-yl)-1,4-dihydro-1,8-naphthyridine-3-carboxamide], the Emax was found to be 94%.

With `O=C(NC12CC3CC(CC(C3)C1)C2)c1cn(-c2ccc(F)cc2F)c2nc(N3CCC(F)(F)C3)ccc2c1=O` [Example 73, 1-(2,4-Difluorophenyl)-7-(3,3-difluoropyrrolidin-1-yl)-4-oxo-N-(tricyclo[3.3.1.1^3,7]dec-1-yl)-1,4-dihydro-1,8-naphthyridine-3-carboxamide], the Emax is 91.9%.

Turning to `CC[C@H](NC(=O)c1cn(-c2ccc(F)cc2F)c2nc(N3CCC(F)(F)C3)ccc2c1=O)C(F)(F)F` [Example 75, 1-(2,4-Difluorophenyl)-7-(3,3-difluoropyrrolidin-1-yl)-4-oxo-N-[(2S)-1,1,1-trifluorobutan-2-yl]-1,4-dihydro-1,8-naphthyridine-3-carboxamide], the Emax turned out to be 87%.

On to `O=C(NC12CC3CC(CC(C3)C1)C2)c1cn(-c2ccc(F)cc2F)c2nc(N3CC(F)(F)C(F)(F)C3)ccc2c1=O` [Example 77, 1-(2,4-Difluorophenyl)-4-oxo-7-(3,3,4,4-tetrafluoropyrrolidin-1-yl)-N-(tricyclo[3.3.1.1^3,7]dec-1-yl)-1,4-dihydro-1,8-naphthyridine-3-carboxamide], for which the Emax amounted to 100%.

In the case of `CC(C)CC(NC(=O)c1cn(-c2ccc(F)cc2F)c2nc(N3CCS(=O)(=O)C3)ccc2c1=O)C(F)(F)F` (centres unmarked) [Example 78, 1-(2,4-Difluorophenyl)-7-(1,1-dioxido-1,3-thiazolidin-3-yl)-4-oxo-N-[1,1-trifluoro-4-methylpentan-2-yl]-1,4-dihydro-1,8-naphthyridine-3-carboxamide], the Emax was found to be 94.3%.

Regarding `O=C(NC12CC3CC(CC(C3)C1)C2)c1cn(-c2ccc(F)cc2F)c2nc(NCCO)ccc2c1=O` [Example 79, 1-(2,4-Difluorophenyl)-7-[(2-hydroxyethyl)amino]-4-oxo-N-(tricyclo[3.3.1.1^3,7]dec-1-yl)-1,4-dihydro-1,8-naphthyridine-3-carboxamide], the Emax stood at 92.2%.

`CC(C)CC(NC(=O)c1cn(-c2ccc(F)cc2F)c2nc(NCCO)ccc2c1=O)C(F)(F)F` (centres unmarked) [Example 80, 1-(2,4-Difluorophenyl)-7-[(2-hydroxyethyl)amino]-4-oxo-N-[1,1,1-trifluoro-4-methylpentan-2-yl]-1,4-dihydro-1,8-naphthyridine-3-carboxamide]: the Emax was found to be 94%.

In the case of `CCCC(NC(=O)c1cn(-c2ccc(F)cc2F)c2nc(NCCO)ccc2c1=O)C(F)(F)F` (centres unmarked) [Example 81, 1-(2,4-Difluorophenyl)-7-[(2-hydroxyethyl)amino]-4-oxo-N-[1,1,1-trifluoropentan-2-yl]-1,4-dihydro-1,8-naphthyridine-3-carboxamide], the Emax was determined as 89.7%.

For `CN(CCO)c1ccc2c(=O)c(C(=O)NC34CC5CC(CC(C5)C3)C4)cn(-c3ccc(F)cc3F)c2n1` [Example 82, 1-(2,4-Difluorophenyl)-7-[(2-hydroxyethyl)(methyl)amino]-4-oxo-N-(tricyclo[3.3.1.1^3,7]dec-1-yl)-1,4-dihydro-1,8-naphthyridine-3-carboxamide], the Emax came out at 100%.

As for `O=C(NC12CC3CC(CC(C3)C1)C2)c1cn(-c2ccc(F)cc2F)c2nc(NCCF)ccc2c1=O` [Example 83, 1-(2,4-Difluorophenyl)-7-[(2-fluoroethyl)amino]-4-oxo-N-(tricyclo[3.3.1.1^3,7]dec-1-yl)-1,4-dihydro-1,8-naphthyridine-3-carboxamide], the Emax is 88.9%.

`CC[C@H](NC(=O)c1cn(-c2ccc(F)cc2F)c2nc(NCCF)ccc2c1=O)C(F)(F)F` [Example 87, 1-(2,4-Difluorophenyl)-7-[(2-fluoroethyl)amino]-4-oxo-N-[(2S)-1,1,1-trifluorobutan-2-yl]-1,4-dihydro-1,8-naphthyridine-3-carboxamide]: the Emax came out at 94%.

Consider `CC(C)CC(NC(=O)c1cn(-c2ccc(F)cc2F)c2nc(NCCF)ccc2c1=O)C(F)(F)F` (centres unmarked) [Example 88], for which the Emax came out at 95%.

As for `O=C(NC(C(F)(F)F)C(F)(F)F)c1cn(-c2ccc(F)cc2F)c2nc(NCCF)ccc2c1=O` [Example 89, 1-(2,4-Difluorophenyl)-7-[(2-fluoroethyl)amino]-N-(1,1,1,3,3,3-hexafluoropropan-2-yl)-4-oxo-1,4-dihydro-1,8-naphthyridine-3-carboxamide], the Emax was 96.6%.

Regarding `O=C(NC12CC3CC(CC(C3)C1)C2)c1cn(-c2ccc(F)cc2F)c2nc(NCC(F)(F)F)ccc2c1=O` [Example 90, 1-(2,4-Difluorophenyl)-4-oxo-N-(tricyclo[3.3.1.1^3,7]dec-1-yl)-7-[(2,2,2-trifluoroethyl)amino]-1,4-dihydro-1,8-naphthyridine-3-carboxamide], the Emax was 94.7%.

Consider `O=C(NC12CC3CC(CC(F)(C3)C1)C2)c1cn(-c2ccc(F)cc2F)c2nc(NCC(F)(F)F)ccc2c1=O` [Example 91, 1-(2,4-Difluorophenyl)-N-(3-fluorotricyclo[3.3.1.1^3,7]dec-1-yl)-4-oxo-7-[(2,2,2-trifluoroethyl)amino]-1,4-dihydro-1,8-naphthyridine-3-carboxamide], for which the Emax is 90.5%.

For `O=C(NC12CC3CC(F)(CC(F)(C3)C1)C2)c1cn(-c2ccc(F)cc2F)c2nc(NCC(F)(F)F)ccc2c1=O` [Example 92, 1-(2,4-Difluorophenyl)-N-(3,5-difluorotricyclo[3.3.1.1^3,7]dec-1-yl)-4-oxo-7-[(2,2,2-trifluoroethyl)amino]-1,4-dihydro-1,8-naphthyridine-3-carboxamide], the Emax amounted to 95.5%.

The record behind these values is patent US20190367516A1 (Bayer Pharma Aktiengesellschaft, priority 2015, published 2019).
